Molecular target: T1, human β-klotho (human, UniProt Q86Z14 1-1044)
T1 sequence (looked up): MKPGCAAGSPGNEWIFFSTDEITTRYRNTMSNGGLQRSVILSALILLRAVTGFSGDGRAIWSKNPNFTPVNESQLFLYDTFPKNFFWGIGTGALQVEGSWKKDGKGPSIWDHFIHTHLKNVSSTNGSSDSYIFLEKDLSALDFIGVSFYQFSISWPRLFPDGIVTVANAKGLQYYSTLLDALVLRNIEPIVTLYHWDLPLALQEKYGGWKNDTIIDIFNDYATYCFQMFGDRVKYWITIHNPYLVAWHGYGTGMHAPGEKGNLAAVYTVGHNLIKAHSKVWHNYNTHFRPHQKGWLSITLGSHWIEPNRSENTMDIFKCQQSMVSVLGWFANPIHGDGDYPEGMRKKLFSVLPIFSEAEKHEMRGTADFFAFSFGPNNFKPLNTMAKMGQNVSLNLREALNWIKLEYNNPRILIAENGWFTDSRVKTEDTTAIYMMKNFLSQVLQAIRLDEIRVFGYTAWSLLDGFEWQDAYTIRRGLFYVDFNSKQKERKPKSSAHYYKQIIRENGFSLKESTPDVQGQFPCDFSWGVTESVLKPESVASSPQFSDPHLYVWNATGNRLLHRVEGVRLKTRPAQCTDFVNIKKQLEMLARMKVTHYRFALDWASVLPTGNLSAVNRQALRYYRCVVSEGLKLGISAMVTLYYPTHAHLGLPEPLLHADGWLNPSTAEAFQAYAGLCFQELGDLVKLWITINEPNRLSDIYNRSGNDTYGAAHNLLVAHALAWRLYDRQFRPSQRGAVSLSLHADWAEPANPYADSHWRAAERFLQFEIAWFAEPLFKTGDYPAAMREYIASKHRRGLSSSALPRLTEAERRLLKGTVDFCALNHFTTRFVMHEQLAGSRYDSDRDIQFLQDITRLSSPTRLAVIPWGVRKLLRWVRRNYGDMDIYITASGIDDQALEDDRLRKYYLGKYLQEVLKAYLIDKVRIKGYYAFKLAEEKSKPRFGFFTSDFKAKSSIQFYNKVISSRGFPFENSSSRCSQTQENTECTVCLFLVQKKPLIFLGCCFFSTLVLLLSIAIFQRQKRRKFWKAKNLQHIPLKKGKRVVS
Assay: cell-based or functional assay

B1: Fc-FGF21 (Lilly) (Fc fusion)
chain: [gap - human IgG4 Fc with S228P F234A L235A (EU numbers)]GGGGSGGGGSGGGGSAHPIPDSSPLLQFGGQVRQRYLYTDDAQQTECHLEIREDGTVGCAADQSPESLLQLKALKPGVIQILGVKTSRFLCQRPDGALYGSLHFDPEACSFREDLKEDGYNVYQSEAHGLPLHLPGDKSPHRKPAPRGPARFLPLPGLPPALPEPPGILAPQPPDVGSSDPLRLVEPSQLRSPSFE
in vitro FGF21 activity (ERK phosphorylation, EC50 compared): 2 times higher activity than DFD1 and RGE (Amgen)
